In the supplement of paper PMC3334620:
Whole data set: some 33,000 sequences, median “E-score (-0.5 to 0.5)” near -0.04, cut for the highest 2% near 0.36. The list shows a part of the results.

What follows are sequences tested against T1, Hmlalpha2 (UniProt P0CY09) (assay: PBM E-score (8-mer binding enrichment) (E-score (-0.5 to 0.5)); higher = stronger / more preferred TF binding; most listed sequences are background and not binding sites). Settings: protein concentration: 200 nM; construct: GST-full length.
T1 sequence: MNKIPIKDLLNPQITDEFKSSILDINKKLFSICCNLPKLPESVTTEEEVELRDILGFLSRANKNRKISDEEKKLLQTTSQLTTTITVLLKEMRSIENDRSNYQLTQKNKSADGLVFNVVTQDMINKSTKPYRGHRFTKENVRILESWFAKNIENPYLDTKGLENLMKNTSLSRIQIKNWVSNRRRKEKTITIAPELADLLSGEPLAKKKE
How it was run: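 For each ungapped eight-base word taken together with its reverse complement, the Universal PBM Analysis Suite assigned an E-score. Binding data came from GST-tagged yeast transcription factors, applied at about 100-200 nM, on universal all-10-mer Agilent arrays made double-stranded by primer extension. Fluorescent anti-GST marked bound protein, and scans were normalised with masliner.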

Row | Sequence | PBM E-score
1 | ACTGCCTA | 0.0425
2 | CCACCTCG | -0.216
3 | CGATAGCC | -0.128
4 | CACGACGG | 0.192
5 | CCGAAAGG | -0.206
6 | ACATCCAG | 0.192
7 | AGGTGAAT | 0.118
8 | ATTGAACG | 0.218
9 | ATCGTTGC | 0.0181
10 | CTGGTAAA | 0.143
11 | GCTATCCC | -0.207
12 | ACGCTTTG | -0.0226
13 | AGGACCAG | -0.158
14 | ATCACGAG | -0.0914
15 | AAGCAAAT | 0.203
16 | CAGCCTAG | -0.165
17 | AGCGTAAG | -0.106
18 | AGCCGCCT | -0.297
19 | GGCACAGA | -0.245
20 | CGCGGACG | -0.145
21 | ACTCTGAT | -0.0492
22 | ACTGGCGC | -0.0623
23 | CCCTTCTA | -0.0409
24 | GCAGCGAC | -0.107
25 | GGTTGCCA | -0.0907

Row | Sequence | PBM E-score
26 | AGCCCCCG | -0.374
27 | CGCCAACG | -0.0698
28 | ACAAGATA | 0.289
29 | GGACGGAA | -0.171
30 | CATGTCGC | 0.256
31 | ACGTCCCA | -0.135
32 | AGCTAGGC | -0.196
33 | AGGGTAGA | -0.285
34 | ACTGCGAA | -0.0362
35 | GGTACGGA | -0.0963
36 | CTAAGCGA | -0.278
37 | ATGACTAC | 0.0237
38 | GCGCAGCA | -0.181
39 | GCTCCTAC | -0.0505
40 | CCAGTAAG | -0.035
41 | ATCAAAAG | -0.154
42 | AAGACGCC | -0.157
43 | CTAATATA | 0.223
44 | AGGCCAGG | -0.218
45 | CCTCAAAA | -0.0993
46 | GCTTTACC | 0.21
47 | CTGTCAAG | -0.124
48 | GGAACCCC | -0.373
49 | CTGACAAG | 0.133
50 | GGCCTACC | -0.247

Row | Sequence | PBM E-score
51 | GCCGTGCA | 0.0721
52 | TAACTGGA | -0.103
53 | AACTTTTA | 0.225
54 | CCTCGTAC | -0.0632
55 | CCTAGGTC | -0.382
56 | ATGAGTAC | 0.155
57 | ATTGCCCC | -0.315
58 | CCAGGCCC | -0.187
59 | CCTACTAC | -0.0206
60 | ACATCACA | 0.237
61 | GCCGATTA | 0.0665
62 | GCGTCAGA | 0.00147
63 | AACTACTA | 0.185
64 | CAGAGTGG | -0.17
65 | AGAAACAG | -0.0268
66 | ACGTAGTG | 0.156
67 | AAAGTAGT | 0.149
68 | CATTAGGG | -0.217
69 | GATTACCA | 0.087
70 | AGACGCCT | -0.0767
71 | TCAATCGA | 0.0055
72 | ATCCCAAA | -0.262
73 | GTATCGCA | -0.0382
74 | GAATCACC | -0.0134
75 | CGGGACCG | -0.268

Row | Sequence | PBM E-score
76 | AGTGTCAA | 0.134
77 | ACTAGACT | -0.186
78 | ACAAAGTC | 0.0424
79 | ACGGTGCC | -0.0717
80 | CAGATATC | 0.00794
81 | AGTGAAAA | 0.0735
82 | CCGCTGAC | -0.146
83 | CCCGCACG | -0.229
84 | ACCTAGGT | -0.102
85 | CAGGTTTA | -0.046
86 | TAAGACGA | -0.0827
87 | ATGAGAAA | 0.0401
88 | AGCGATGA | -0.0359
89 | AATAAGCC | -0.212
90 | CGCAGTTA | 0.0795
91 | ACTGGTCT | -0.147
92 | ATGAGCAT | 0.125
93 | CCGCCTGA | -0.247
94 | AACCGACC | -0.111
95 | CAACGCAG | 0.1
96 | ATGCTGAG | -0.193
97 | GAATAACC | -0.0464
98 | GCGCACCC | -0.16
99 | GCCTGAAA | -0.011
100 | ACACACGG | 0.277

Row | Sequence | PBM E-score
101 | CGTCGGAG | 0.039
102 | GGGCGCCC | -0.262
103 | ATAAACCG | -0.0464
104 | CACGTCTC | -0.014
105 | CTAATGCA | 0.0875
106 | GCCTCGTA | 0.202
107 | GAACGTGA | 0.0247
108 | ACAGACGC | 0.086
109 | ACCCTTTC | 0.11
110 | GTAGCCGA | -0.0475
111 | CACCTGCA | -0.237
112 | GACGCTCC | -0.304
113 | CATGCTAA | 0.298
114 | GCAGTCCA | -0.0643
115 | ATTGTGGG | -0.145
116 | AGCGCGAT | 0.0252
117 | TGGCACCA | -0.128
118 | CTTATCGC | -0.216
119 | GACCGCAC | -0.227
120 | ACGGTTCC | -0.192
121 | AGACGTTC | -0.00208
122 | ATGCGCCA | -0.0251
123 | GTCAAGAC | -0.135
124 | CCAAACCG | -0.281
125 | ACCTAAAG | -0.0573

Row | Sequence | PBM E-score
126 | GCTCCGAC | -0.0741
127 | ATCTGGGC | -0.311
128 | ATTCTGCA | -0.0444
129 | ATCGACTA | -0.0703
130 | TATCAGCA | -0.0185
131 | TAACGGGA | -0.0973
132 | ACCCAAGG | -0.14
133 | CAAGATGA | -0.0169
134 | ACGGAACT | -0.0556
135 | ATCGAAAT | -0.0865
136 | CTGTAATC | 0.243
137 | AGAGATCA | -0.177
138 | CAAGTTCG | -0.027
139 | ACTCCGTA | -0.223
140 | AGACCAGC | -0.307
141 | CAAGATAA | 0.177
142 | ATAATGGG | -0.0208
143 | ATATGTAA | 0.416
144 | CGGACGAC | -0.0451
145 | AACCGCCG | -0.113
146 | AACAGGAC | 0.202
147 | AGACAATG | 0.0695
148 | AGGGACCC | -0.33
149 | GAGCTACA | 0.0237
150 | CATATATA | 0.231

Row | Sequence | PBM E-score
151 | CGCCGTTC | -0.118
152 | ACGATCGG | -0.135
153 | CCTGAGAC | -0.148
154 | TCCTTTCA | -0.0612
155 | AGTAAAGC | 0.139
156 | AAGAAAGT | -0.0831
157 | AGGTGTCC | -0.111
158 | ACTCACGC | 0.0398
159 | GGTCATCA | -0.155
160 | ACTCTATA | -0.00313
161 | CATCGTAA | 0.263
162 | GTGCAATA | 0.0994
163 | AAATGCGC | 0.171
164 | GATAATGA | -0.091
165 | GACCCATA | -0.143
166 | AACCGTTA | 0.0791
167 | CATTGCTA | 0.0515
168 | CCTCTTAA | -0.022
169 | CCACTACA | 0.212
170 | CAACCAAA | 0.00973
171 | AGGGAGAA | -0.17
172 | AACTCTAC | 0.0855
173 | ACAAGTAG | 0.0754
174 | AGATAAGC | -0.0228
175 | CGTAAGTA | 0.175

Row | Sequence | PBM E-score
176 | CCCAAAGG | -0.177
177 | CTCACATC | -0.0809
178 | AGTAAGCC | -0.078
179 | CCAATTCG | 0.0567
180 | AAGGTCTG | 0.0312
181 | ATTTCGCA | 0.102
182 | GGCTTCAA | -0.0392
183 | CCGTAGTA | -0.123
184 | ATACTGAT | 0.126
185 | GCTGAACA | 0.0644
186 | CCTCGAAG | -0.129
187 | ATAAAGTC | -0.0207
188 | AGGTTATA | 0.0651
189 | GGGAGTGA | -0.0545
190 | AGAAGGCT | -0.337
191 | TACGGTAA | 0.118
192 | CAGCGCTA | 0.0425
193 | CCTGACCC | -0.228
194 | CTAACCAA | 0.202
195 | CAGCCGGC | -0.258
196 | CAGGGTAC | 0.0141
197 | AACCCGAT | 0.0593
198 | GCGCGCGC | 0.164
199 | GGCCCTAC | -0.351
200 | GACCCCTC | -0.308

Row | Sequence | PBM E-score
201 | GACCACAC | 0.0249
202 | CCTGAAAG | -0.0265
203 | AGGCAACG | -0.0748
204 | GATTGGTA | 0.00817
205 | CCTTCTCA | -0.313
206 | CTTTGTGA | 0.00029
207 | CGGAAGTC | -0.243
208 | AGCTTTGA | 0.0034
209 | AAAGAGTA | 0.0826
210 | ACCCGGCC | -0.25
211 | AATATATT | 0.308
212 | CTTGAACC | 0.0262
213 | TCACAGAA | 0.0165
214 | GACAGCCA | -0.131
215 | ACAATATG | 0.183
216 | CCATAAAA | -0.00897
217 | ACATCACC | 0.103
218 | AACGCCTG | 0.0666
219 | CACTTACG | 0.134
